In all, about 220,000 compounds went through this assay and about 5,700 (2.6%) were called active. Inconclusive results, whose numbers are uncertain, are shown with a selection of clear calls. The call rests on the fitted dose curve; in most records, active means well fitted inhibition curve with a large enough effect; inconclusive means small, poorly fitted or top-dose-only effect; inactive means no such curve, though single readings can be large or run the other way. Potencies of inconclusive entries are doubtful fits and often do not repeat.
molecular target: Lysine-specific demethylase 5B (Homo sapiens) (UniProt Q9UGL1); experiment: Primary screen for KDM5B Histone Demethylases FDH-coupled qHTS; settings: FDH-coupled NADH fluorescence (FDH is formaldehyde dehydrogenase); activity change, negative = inhibition: at 57.7 µM (top of the series) unless noted; further: nearly all actives have a fitted effect of over 70% in size; on activity change, negative = inhibition: 0% is about no effect
UniProt Q9UGL1, sequence (Q9UGL1 whole entry, looked up): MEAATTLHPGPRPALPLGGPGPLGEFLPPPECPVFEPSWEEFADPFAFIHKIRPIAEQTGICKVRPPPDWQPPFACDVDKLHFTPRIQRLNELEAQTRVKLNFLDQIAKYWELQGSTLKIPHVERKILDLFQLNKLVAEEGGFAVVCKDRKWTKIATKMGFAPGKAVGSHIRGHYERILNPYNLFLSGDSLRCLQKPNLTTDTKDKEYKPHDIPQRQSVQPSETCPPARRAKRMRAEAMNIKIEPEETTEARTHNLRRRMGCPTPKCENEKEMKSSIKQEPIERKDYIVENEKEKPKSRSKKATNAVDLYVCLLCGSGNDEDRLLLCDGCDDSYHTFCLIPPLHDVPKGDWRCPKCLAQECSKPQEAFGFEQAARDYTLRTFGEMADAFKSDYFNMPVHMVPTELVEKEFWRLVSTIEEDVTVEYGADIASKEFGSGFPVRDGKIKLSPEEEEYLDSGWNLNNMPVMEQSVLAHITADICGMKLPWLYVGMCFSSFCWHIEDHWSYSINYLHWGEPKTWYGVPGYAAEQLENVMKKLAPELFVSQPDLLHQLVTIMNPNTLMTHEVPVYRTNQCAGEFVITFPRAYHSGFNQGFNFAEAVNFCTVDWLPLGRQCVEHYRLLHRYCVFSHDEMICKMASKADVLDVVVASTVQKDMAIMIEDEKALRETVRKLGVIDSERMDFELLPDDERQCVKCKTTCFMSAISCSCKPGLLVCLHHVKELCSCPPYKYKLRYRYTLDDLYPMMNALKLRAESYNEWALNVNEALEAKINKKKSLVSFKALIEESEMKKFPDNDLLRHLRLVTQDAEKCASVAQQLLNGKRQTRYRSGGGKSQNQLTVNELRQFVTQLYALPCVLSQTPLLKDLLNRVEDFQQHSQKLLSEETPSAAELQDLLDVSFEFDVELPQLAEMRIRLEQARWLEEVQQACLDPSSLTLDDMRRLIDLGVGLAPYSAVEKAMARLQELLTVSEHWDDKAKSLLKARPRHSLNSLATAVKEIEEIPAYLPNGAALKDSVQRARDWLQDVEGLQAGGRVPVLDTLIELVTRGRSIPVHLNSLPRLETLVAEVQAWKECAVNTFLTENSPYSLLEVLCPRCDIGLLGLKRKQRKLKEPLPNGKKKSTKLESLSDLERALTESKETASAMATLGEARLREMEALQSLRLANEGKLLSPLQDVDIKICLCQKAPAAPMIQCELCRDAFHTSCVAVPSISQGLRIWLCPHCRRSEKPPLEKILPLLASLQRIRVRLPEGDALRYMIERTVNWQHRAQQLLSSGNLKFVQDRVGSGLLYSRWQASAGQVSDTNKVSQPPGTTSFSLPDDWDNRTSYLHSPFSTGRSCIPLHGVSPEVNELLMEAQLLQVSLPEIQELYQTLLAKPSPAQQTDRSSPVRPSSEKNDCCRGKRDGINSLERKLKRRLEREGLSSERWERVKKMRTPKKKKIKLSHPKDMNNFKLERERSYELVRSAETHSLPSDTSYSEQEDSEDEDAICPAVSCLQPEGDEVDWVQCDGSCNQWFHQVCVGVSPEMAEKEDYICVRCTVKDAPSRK
How it was run: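 Compound dilutions met 200 nM (final) KDM5BΔAP for 10 min at room temperature before substrate addition. The substrate mix held 12.5 µM H3K4me3 with cofactors 25 µM α-ketoglutarate and 50 µM Fe²⁺. NADH signal gain over 30 min defined activity.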
Potency means the concentration at half of the fitted maximal effect; tags describe the fitted curve by direction and shape.

Structure (SMILES) | Potency | activity change, negative = inhibition
CSC1=N/C(=C\C=C\c2ccco2)C(=O)S1 | inconclusive: 2.51 µM [inhibitor, full curve, poor fit] | –
COCCc1noc(-c2nc(-c3ccc(OC)cc3)no2)n1 | inconclusive: 22.4 µM [inhibitor, partial curve, poor fit] | –
COCCNC(=O)C[C@@H]1c2nc(NC(=O)c3ccc(F)cc3)sc2C[C@@H]2[C@](C)(CO)[C@H](O)CC[C@]21C | – | inactive: -7.1%
CCc1ccc(C(=O)CC2(O)C(=O)N(Cc3ccc(C)cc3)c3ccccc32)cc1 (stereo not drawn) | inconclusive: 25.1 µM [inhibitor, partial curve, poor fit] | –
CC(C)c1nc2ccc(C(=O)NCc3ccccc3Br)cc2o1 | inconclusive: 25.1 µM [inhibitor, partial curve, poor fit] | –
CC(C)CSc1nc2c(c(=O)n(C)c(=O)n2C)n1C/C=C/c1ccccc1 | – | inactive: 5.42%
Cc1ccc(-n2c(CCC(=O)O)ccc2-c2cccs2)cc1Cl | inconclusive: 15.8 µM [inhibitor, partial curve, poor fit] | –
O=C(c1ccco1)N(Cc1cccs1)c1ccc(F)cc1 | inconclusive: 10 µM [inhibitor, partial curve, poor fit] | –
CCOc1ccc(-c2noc(-c3nc(-c4ccncc4)no3)n2)cc1 | inconclusive: 28.2 µM [inhibitor, single point] | –
O=C(c1cnccn1)N1C[C@@H]2OCC(=O)N(CC3CCCCC3)[C@@H]2C1 | inconclusive: 35.5 µM [inhibitor, partial curve, poor fit] | –
Cc1cc(O)c(C(c2ccccc2)N2CCN(c3ccc(F)cc3)CC2)c(=O)n1Cc1ccco1 (stereo not drawn) | inconclusive: 28.2 µM [inhibitor, single point] | –
Cn1ncc(N2CCCC(CC(=O)NCC3CC3)C2)cc1=O (stereo not drawn) | – | inactive: 2.63%
COc1ccc(-c2cc(N3CCCN(C(=O)Cc4cccc(OC)c4)CC3)n[nH]2)cc1 | inconclusive: 17.8 µM [inhibitor, partial curve, poor fit] | –
Cc1ccc(C)c(N2CCN(C(=O)c3noc(-c4ccc[nH]c4=O)n3)CC2)c1 | active: 28.2 µM | –
Cn1cccc1CN1CCCC2(Cc3ccccc3CNC2=O)C1 (stereo not drawn) | inconclusive: 63.1 µM [inhibitor, partial curve, poor fit] | –
CC[C@H](C)[C@H](NC(=O)c1ccc2nc(-n3cccc3)sc2c1)C(=O)NCc1ccccn1 | inconclusive: 39.8 µM [inhibitor, single point] | –
Cc1ccc(C(=O)Nc2cccc3cccnc23)cc1 | – | inactive: 3.9%
CN1C[C@@H](NC(=O)CC(C)(C)CC(=O)O)C[C@H]1c1nc(-c2ccccn2)no1 | inconclusive: 39.8 µM [inhibitor, partial curve, poor fit] | –
COc1cccc(CNC(=O)COc2cc(O)c3c(=O)cc(-c4ccccc4)oc3c2)c1 | – | inactive: 13.8%
O=C(Cn1nc(C(=O)O)c2ccccc2c1=O)c1cc(F)ccc1F | – | inactive: 38.3%
Cc1c(CC(=O)NCc2cccnc2)c2c(n1CC(C)C)CC(C)(C)CC2=O | – | inactive: -13.1%
O=C(COC(=O)/C=C/c1cccc2cccnc12)Nc1ccc(O)cc1 | inconclusive: 22.4 µM [inhibitor, single point] | –

Structure (SMILES) | Potency | activity change, negative = inhibition
Fc1ccc(NC(=S)NCC(c2ccccc2)c2ccccc2)cc1 | – | inactive: -19.1%
Cc1ccc(CN2CCCCCCNC(=O)[C@@H]3C[C@@H](C(=O)NCCc4cnc[nH]4)C[C@@H]32)o1 | inconclusive: 22.4 µM [inhibitor, partial curve] | –
O=C(NC1CCN(c2cc(-c3cccs3)[nH]n2)C1)c1cccc(Cl)c1 (stereo not drawn) | inconclusive: 10 µM [inhibitor, partial curve, poor fit] | –
COCCn1c(-n2nc(C)cc2C)nc2c1c(=O)n(Cc1ccc(F)cc1)c(=O)n2C | – | inactive: 18.3%
CNC(=O)c1cc2cc(-c3c(C)noc3C)nc(-c3ccc(F)cc3OC)c2o1 | inconclusive: 35.5 µM [inhibitor, partial curve, poor fit] | –
CCN(Cc1ccccc1)C(=O)c1cn(-c2cccc(Cl)c2)nn1 | – | inactive: 6.05%
Oc1cccc(-c2cc(-c3cccnc3)c3cncn3c2)c1 | inconclusive: 31.6 µM [inhibitor, partial curve, poor fit] | –
COc1ccc(CCNC(=O)Cc2c(C)c3c(OC)cc(OC)cc3oc2=O)cc1 | inconclusive: 1.58 µM [inhibitor, partial curve, poor fit] | –
CC(C)c1nc(N(C)CCO)c(C#N)c2c1CCCC2 | inconclusive: 28.2 µM [inhibitor, single point] | –
COc1cc2c(cc1OC)C(C[C@H]1CN(C(=O)Nc3ccc(Cl)cc3)CC[C@H]1CC(=O)O)=NCC2 | active: 28.2 µM | –
CC(=O)NCCC(=O)N1Cc2ccccc2CC2(CCCCN2CC2CCCC2)C1 (stereo not drawn) | inconclusive: 79.4 µM [inhibitor, partial curve, poor fit] | –
CS(=O)(=O)CCN1CCN(c2ccccc2O)CC1 | inconclusive: 39.8 µM [inhibitor, single point] | –
COC(=O)C1=C(C)N=C2SC=C(CC(=O)NCc3ccccc3)N2C1c1ccccc1OC (stereo not drawn) | – | inactive: -21.6%
COc1ccc(CNc2nc(-c3ccc(Cl)cc3)cc(C(F)(F)F)n2)cc1 | inconclusive: 31.6 µM [inhibitor, partial curve, poor fit] | –
COCCNC(=O)Cn1nc(-c2ccc(C)cc2)c2ccccc2c1=O | inactive | –
CCn1nc(C(=O)NCC2(c3ccccc3)CCC2)c2ccccc2c1=O | – | inactive: -1.31%
Cc1cccc(C(=O)NC2CCN(c3cc(-c4ccc(Cl)cc4)[nH]n3)CC2)c1 | inconclusive: 28.2 µM [inhibitor, partial curve, poor fit] | –
Cc1nc2cc(-c3cccc(F)c3)nn2c(C)c1CCC(=O)Nc1ccccc1C(N)=O | inconclusive: 25.1 µM [inhibitor, partial curve, poor fit] | –
Fc1ccccc1CN1CCCC2(CCN(c3cnccn3)C2)C1 (stereo not drawn) | active: 31.6 µM | –
CN(C)CCNC(=O)c1nc(-c2ccccc2)cc2[nH]ccc12 | – | inactive: -3600% [at 86.2 µM]
COC(=O)[C@@H]1Cc2c([nH]c3ccccc23)[C@H]2C[C@@H](NCc3cccnc3)C[C@@H](c3ccc(F)c(F)c3)N21 | active: 25.1 µM | –

Source: PubChem BioAssay AID1347165 (National Center for Advancing Translational Sciences (NCATS), 2019)
